# The list shows a part of the results.
# B1: DEC205 (Homo sapiens), O60449 (protein)
# chain: MRTGWATPRRPAGLLMLLFWFFDLAEPSGRAANDPFTIVHGNTGKCIKPVYGWIVADDCDETEDKLWKWVSQHRLFHLHSQKCLGLDITKSVNELRMFSCDSSAMLWWKCEHHSLYGAARYRLALKDGHGTAISNASDVWKKGGSEESLCDQPYHEIYTRDGNSYGRPCEFPFLIDGTWHHDCILDEDHSGPWCATTLNYEYDRKWGICLKPENGCEDNWEKNEQFGSCYQFNTQTALSWKEAYVSCQNQGADLLSINSAAELTYLKEKEGIAKIFWIGLNQLYSARGWEWSDHKPLNFLNWDPDRPSAPTIGGSSCARMDAESGLWQSFSCEAQLPYVCRKPLNNTVELTDVWTYSDTRCDAGWLPNNGFCYLLVNESNSWDKAHAKCKAFSSDLISIHSLADVEVVVTKLHNEDIKEEVWIGLKNINIPTLFQWSDGTEVTLTYWDENEPNVPYNKTPNCVSYLGELGQWKVQSCEEKLKYVCKRKGEKLNDASSDKMCPPDEGWKRHGETCYKIYEDEVPFGTNCNLTITSRFEQEYLNDLMKKYDKSLRKYFWTGLRDVDSCGEYNWATVGGRRRAVTFSNWNFLEPASPGGCVAMSTGKSVGKWEVKDCRSFKALSICKKMSGPLGPEEASPKPDDPCPEGWQSFPASLSCYKVFHAERIVRKRNWEEAERFCQALGAHLSSFSHVDEIKEFLHFLTDQFSGQHWLWIGLNKRSPDLQGSWQWSDRTPVSTIIMPNEFQQDYDIRDCAAVKVFHRPWRRGWHFYDDREFIYLRPFACDTKLEWVCQIPKGRTPKTPDWYNPDRAGIHGPPLIIEGSEYWFVADLHLNYEEAVLYCASNHSFLATITSFVGLKAIKNKIANISGDGQKWWIRISEWPIDDHFTYSRYPWHRFPVTFGEECLYMSAKTWLIDLGKPTDCSTKLPFICEKYNVSSLEKYSPDSAAKVQCSEQWIPFQNKCFLKIKPVSLTFSQASDTCHSYGGTLPSVLSQIEQDFITSLLPDMEATLWIGLRWTAYEKINKWTDNRELTYSNFHPLLVSGRLRIPENFFEEESRYHCALILNLQKSPFTGTWNFTSCSERHFVSLCQKYSEVKSRQTLQNASETVKYLNNLYKIIPKTLTWHSAKRECLKSNMQLVSITDPYQQAFLSVQALLHNSSLWIGLFSQDDELNFGWSDGKRLHFSRWAETNGQLEDCVVLDTDGFWKTVDCNDNQPGAICYYSGNETEKEVKPVDSVKCPSPVLNTPWIPFQNCCYNFIITKNRHMATTQDEVHTKCQKLNPKSHILSIRDEKENNFVLEQLLYFNYMASWVMLGITYRNNSLMWFDKTPLSYTHWRAGRPTIKNEKFLAGLSTDGFWDIQTFKVIEEAVYFHQHSILACKIEMVDYKEEHNTTLPQFMPYEDGIYSVIQKKVTWYEALNMCSQSGGHLASVHNQNGQLFLEDIVKRDGFPLWVGLSSHDGSESSFEWSDGSTFDYIPWKGQTSPGNCVLLDPKGTWKHEKCNSVKDGAICYKPTKSKKLSRLTYSSRCPAAKENGSRWIQYKGHCYKSDQALHSFSEAKKLCSKHDHSATIVSIKDEDENKFVSRLMRENNNITMRVWLGLSQHSVDQSWSWLDGSEVTFVKWENKSKSGVGRCSMLIASNETWKKVECEHGFGRVVCKVPLGPDYTAIAIIVATLSILVLMGGLIWFLFQRHRLHLAGFSSVRYAQGVNEDEIMLPSFHD
# Columns and labels:
# Assay in all cases: glycan array binding signal (z-score within array); higher = stronger binding
# Details in all cases: glycan notation: IUPAC condensed, linker removed
# [1] = biological target: Fuc(a1-3)[Gal(b1-4)]GlcNAc
# In short: (§1)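 Glycan array data were curated from 3228 arrays in the Consortium for Functional Glycomics database and kept only where the protein sequence was available. Glycan names were converted to IUPAC-condensed notation, and columns mapping to the same glycan were averaged. The binding signal is a within-array Z-score, averaged across arrays of the same protein sequence at different concentrations or buffers and across linkers. Negative Z-scores can be read as non-binding.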
# [2] = biological target: Fuc(a1-3)[Gal(b1-4)]GlcNAc(b1-4)Gal(b1-4)[Fuc(a1-3)]GlcNAc
# In short: as §1
# [3] = biological target: Fuc(a1-3)[Gal(b1-4)]GlcNAc(b1-4)Gal(b1-4)[Fuc(a1-3)]GlcNAc(b1-4)Gal(b1-4)[Fuc(a1-3)]GlcNAc
# In short: as §1
# [4] = biological target: Fuc(a1-3)[Gal3S(b1-4)]GlcNAc
# In short: as §1
# [5] = biological target: Fuc(a1-3)[GalNAc(b1-4)]GlcNAc
# In short: as §1
# Fuc(a1-4)GlcNAc = biological target: Fuc(a1-4)GlcNAc
# In short: as §1
# Fuc(b1-3)GlcNAc = biological target: Fuc(b1-3)GlcNAc
# In short: as §1
# Gal(a1-2)Gal = biological target: Gal(a1-2)Gal
# In short: as §1
# Gal(a1-3)Gal = biological target: Gal(a1-3)Gal
# In short: as §1
# Gal(a1-3)Gal(b1-3)GlcNAc = biological target: Gal(a1-3)Gal(b1-3)GlcNAc
# In short: as §1
# Gal(a1-3)Gal(b1-4)Glc = biological target: Gal(a1-3)Gal(b1-4)Glc
# In short: as §1
# Gal(a1-3)Gal(b1-4)GlcNAc = biological target: Gal(a1-3)Gal(b1-4)GlcNAc
# In short: as §1
# [6] = biological target: Gal(a1-3)Gal(b1-4)[Fuc(a1-3)]GlcNAc
# In short: as §1
# Gal(a1-3)GalNAc = biological target: Gal(a1-3)GalNAc
# In short: as §1
# [7] = biological target: Gal(a1-3)[Gal(a1-4)]Gal(b1-4)GlcNAc
# In short: as §1
# Gal(a1-4)Gal(b1-4)Glc = biological target: Gal(a1-4)Gal(b1-4)Glc
# In short: as §1
# Gal(a1-4)Gal(b1-4)GlcNAc = biological target: Gal(a1-4)Gal(b1-4)GlcNAc
# In short: as §1
# Gal(a1-4)GlcNAc = biological target: Gal(a1-4)GlcNAc
# In short: as §1
# Gal(a1-6)Glc = biological target: Gal(a1-6)Glc
# In short: as §1
# Gal(b1-2)Gal = biological target: Gal(b1-2)Gal
# In short: as §1
# Gal(b1-3)Gal = biological target: Gal(b1-3)Gal
# In short: as §1
# Gal(b1-3)GalNAc = biological target: Gal(b1-3)GalNAc
# In short: as §1
# [8] = biological target: Gal(b1-3)GalNAc(b1-3)Gal(a1-4)Gal(b1-4)Glc
# In short: as §1
# [9] = biological target: Gal(b1-3)GalNAc(b1-4)Gal(b1-4)Glc
# In short: as §1
# [10] = biological target: Gal(b1-3)GalNAc(b1-4)[Neu5Ac(a2-3)]Gal(b1-4)Glc
# In short: as §1
# Gal(b1-3)GlcNAc = biological target: Gal(b1-3)GlcNAc
# In short: as §1
# [11] = biological target: Gal(b1-3)GlcNAc(b1-3)Gal(b1-4)Glc
# In short: as §1
# [12] = biological target: Gal(b1-3)GlcNAc(b1-3)Gal(b1-4)GlcNAc
# In short: as §1
# [13] = biological target: Gal(b1-3)[Fuc(a1-4)]GlcNAc
# In short: as §1
# [14] = biological target: Gal(b1-3)[Fuc(a1-4)]GlcNAc(b1-3)Gal(b1-4)GlcNAc
# In short: as §1
# [15] = biological target: Gal(b1-3)[Fuc(a1-4)]GlcNAc(b1-3)Gal(b1-4)[Fuc(a1-3)]GlcNAc
# In short: as §1
# [16] = biological target: Gal(b1-3)[GlcNAc(b1-6)]GalNAc
# In short: as §1
# [17] = biological target: Gal(b1-3)[Neu5Ac(a2-6)]GalNAc
# In short: as §1
# [18] = biological target: Gal(b1-3)[Neu5Ac(a2-6)]GlcNAc(b1-6)Gal(b1-4)Glc
# In short: as §1
# [19] = biological target: Gal(b1-3)[Neu5Ac(b2-6)]GalNAc
# In short: as §1
# [20] = biological target: Gal(b1-4)GalNAc(a1-3)[Fuc(a1-2)]Gal(b1-4)GlcNAc
# In short: as §1
# [21] = biological target: Gal(b1-4)GalNAc(b1-3)[Fuc(a1-2)]Gal(b1-4)GlcNAc
# In short: as §1
# Gal(b1-4)Glc = biological target: Gal(b1-4)Glc
# In short: as §1
# Gal(b1-4)Glc6S = biological target: Gal(b1-4)Glc6S
# In short: as §1
# Gal(b1-4)GlcNAc = biological target: Gal(b1-4)GlcNAc
# In short: as §1
# [22] = biological target: Gal(b1-4)GlcNAc(b1-2)Man(a1-3)[Gal(b1-4)GlcNAc(b1-2)Man(a1-6)]Man(b1-4)GlcNAc(b1-4)GlcNAc
# In short: as §1
# [23] = biological target: Gal(b1-4)GlcNAc(b1-3)Gal(b1-4)Glc
# In short: as §1
# [24] = biological target: Gal(b1-4)GlcNAc(b1-3)Gal(b1-4)GlcNAc
# In short: as §1
# [25] = biological target: Gal(b1-4)GlcNAc(b1-3)Gal(b1-4)GlcNAc(b1-3)Gal(b1-4)GlcNAc
# In short: as §1
# [26] = biological target: Gal(b1-4)GlcNAc(b1-3)Gal(b1-4)[Fuc(a1-3)]GlcNAc(b1-3)Gal(b1-4)[Fuc(a1-3)]GlcNAc
# In short: as §1
binder,measurement,setting,value
B1,glycan array binding signal (z-score),[1],-0.335
same,glycan array binding signal (z-score),[2],-0.241
same,glycan array binding signal (z-score),[3],-0.168
same,glycan array binding signal (z-score),[4],-0.128
same,glycan array binding signal (z-score),[5],-0.116
same,glycan array binding signal (z-score),Fuc(a1-4)GlcNAc,-0.037
same,glycan array binding signal (z-score),Fuc(b1-3)GlcNAc,-0.339
same,glycan array binding signal (z-score),Gal(a1-2)Gal,-0.046
same,glycan array binding signal (z-score),Gal(a1-3)Gal,-0.216
same,glycan array binding signal (z-score),Gal(a1-3)Gal(b1-3)GlcNAc,-0.064
same,glycan array binding signal (z-score),Gal(a1-3)Gal(b1-4)Glc,1.66
same,glycan array binding signal (z-score),Gal(a1-3)Gal(b1-4)GlcNAc,-0.396
same,glycan array binding signal (z-score),[6],-0.293
same,glycan array binding signal (z-score),Gal(a1-3)GalNAc,-0.266
same,glycan array binding signal (z-score),[7],-0.316
same,glycan array binding signal (z-score),Gal(a1-4)Gal(b1-4)Glc,-0.362
same,glycan array binding signal (z-score),Gal(a1-4)Gal(b1-4)GlcNAc,-0.18
same,glycan array binding signal (z-score),Gal(a1-4)GlcNAc,-0.209
same,glycan array binding signal (z-score),Gal(a1-6)Glc,-0.145
same,glycan array binding signal (z-score),Gal(b1-2)Gal,-0.037
same,glycan array binding signal (z-score),Gal(b1-3)Gal,-0.262
same,glycan array binding signal (z-score),Gal(b1-3)GalNAc,-0.352
same,glycan array binding signal (z-score),[8],-0.217
same,glycan array binding signal (z-score),[9],0.224
same,glycan array binding signal (z-score),[10],-0.351
same,glycan array binding signal (z-score),Gal(b1-3)GlcNAc,-0.248
same,glycan array binding signal (z-score),[11],-0.421
same,glycan array binding signal (z-score),[12],-0.245
same,glycan array binding signal (z-score),[13],-0.342
same,glycan array binding signal (z-score),[14],0.068
same,glycan array binding signal (z-score),[15],0.518
same,glycan array binding signal (z-score),[16],-0.217
same,glycan array binding signal (z-score),[17],-0.279
same,glycan array binding signal (z-score),[18],-0.052
same,glycan array binding signal (z-score),[19],-0.212
same,glycan array binding signal (z-score),[20],0.06
same,glycan array binding signal (z-score),[21],0.768
same,glycan array binding signal (z-score),Gal(b1-4)Glc,-0.117
same,glycan array binding signal (z-score),Gal(b1-4)Glc6S,0.134
same,glycan array binding signal (z-score),Gal(b1-4)GlcNAc,-0.361
same,glycan array binding signal (z-score),[22],0.21
same,glycan array binding signal (z-score),[23],-0.168
same,glycan array binding signal (z-score),[24],-0.126
same,glycan array binding signal (z-score),[25],-0.347
same,glycan array binding signal (z-score),[26],-0.158
